The text below walks through data of article PMC4336329 (PLoS ONE, 2015).

The structures appear in SMILES notation. Among all 310,000 compounds or so, about 14,000 (4.5%) showed an effect of 50% or more. Effects have a minus sign here. Some of the results follow.
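Note: peak tail current of the secondary pulse compared with the same well before compound.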

In the assay the target is human ether-à-go-go-related gene (hERG) potassium channel (human, UniProt Q12809). The assay can be described thus: primary screen, population patch clamp on CHO cells stably expressing hERG.
Sequence of human ether-à-go-go-related gene (hERG) potassium channel (Q12809 whole entry, looked up): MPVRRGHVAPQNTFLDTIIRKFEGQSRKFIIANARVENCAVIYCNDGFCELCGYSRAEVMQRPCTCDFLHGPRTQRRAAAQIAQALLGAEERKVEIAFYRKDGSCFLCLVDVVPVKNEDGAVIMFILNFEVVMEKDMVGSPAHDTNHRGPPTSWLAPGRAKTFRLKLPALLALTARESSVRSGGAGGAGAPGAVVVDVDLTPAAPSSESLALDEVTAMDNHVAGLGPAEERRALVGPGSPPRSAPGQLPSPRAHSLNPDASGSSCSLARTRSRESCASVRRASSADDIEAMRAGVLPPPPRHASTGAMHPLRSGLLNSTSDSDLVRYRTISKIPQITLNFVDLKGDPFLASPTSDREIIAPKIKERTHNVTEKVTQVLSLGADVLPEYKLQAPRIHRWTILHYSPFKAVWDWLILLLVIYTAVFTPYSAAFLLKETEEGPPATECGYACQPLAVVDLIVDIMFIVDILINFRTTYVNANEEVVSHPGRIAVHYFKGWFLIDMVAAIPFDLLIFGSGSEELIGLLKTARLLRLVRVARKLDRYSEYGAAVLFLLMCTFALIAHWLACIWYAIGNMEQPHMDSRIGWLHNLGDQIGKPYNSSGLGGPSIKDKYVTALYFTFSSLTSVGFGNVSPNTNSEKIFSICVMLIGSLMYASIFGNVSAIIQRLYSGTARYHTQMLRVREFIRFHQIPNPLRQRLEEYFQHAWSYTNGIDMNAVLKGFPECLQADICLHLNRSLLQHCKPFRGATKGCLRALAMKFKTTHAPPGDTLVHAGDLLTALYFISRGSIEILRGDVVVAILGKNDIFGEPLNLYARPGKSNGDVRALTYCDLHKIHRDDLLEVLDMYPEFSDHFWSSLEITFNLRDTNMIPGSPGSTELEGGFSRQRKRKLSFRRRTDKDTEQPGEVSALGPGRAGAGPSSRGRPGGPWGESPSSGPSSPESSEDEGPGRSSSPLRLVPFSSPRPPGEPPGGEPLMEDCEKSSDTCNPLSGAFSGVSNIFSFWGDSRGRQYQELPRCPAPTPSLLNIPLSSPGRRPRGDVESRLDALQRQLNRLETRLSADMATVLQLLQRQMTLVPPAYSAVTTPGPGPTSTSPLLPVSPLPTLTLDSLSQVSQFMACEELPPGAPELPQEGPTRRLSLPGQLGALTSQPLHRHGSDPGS
On to `CC(=O)c1cc(-c2ccccc2)n(CC(=O)N2CCN(C3CCCC3)CC2)c1C`, for which the “hERG current change (%, negative = inhibition) at 10uM” value was -6.62%.

Take `CNS(=O)(=O)c1cccc(C(=O)OCC(=O)N(CCC#N)c2ccccc2)c1`: the “hERG current change (%, negative = inhibition) at 10uM” value was found to be 3.5%.

Turning to `Cc1ccc(-c2cc(=O)c3ccccc3[nH]2)cc1`, the “hERG current change (%, negative = inhibition) at 10uM” value was determined as 13.6%.

As for `COc1ccc(NC(=O)Cn2nnc(C(N)=O)c2N)c(OC)c1`, the “hERG current change (%, negative = inhibition) at 10uM” value is on record as 3.77%.

As for `Cc1c(NC(=O)Nc2ccccc2Cl)c(=O)n(-c2ccccc2)n1C`, the “hERG current change (%, negative = inhibition) at 10uM” value was found to be 7.68%.

For the compound `CCOC(=O)C(=CNc1cc(Cl)c(-c2ccco2)c(Cl)c1)C(=O)OCC`, the “hERG current change (%, negative = inhibition) at 10uM” value came out at 16.4%.

Take `N#CCSc1nc2ccccc2c(=O)n1CCC(=O)NCCc1ccccc1`: the “hERG current change (%, negative = inhibition) at 10uM” value is 13.2%.

As for `COc1ccc(NS(=O)(=O)c2ccc(NC(=S)NC(=O)c3ccc(F)cc3)cc2)nn1`, the “hERG current change (%, negative = inhibition) at 10uM” value is on record as -3.26%.

Turning to `COc1ccc(/C=N/n2nnnc2N)cc1OC`, the “hERG current change (%, negative = inhibition) at 10uM” value is listed as 14.4%.

In the case of `C/C(=N\NC(N)=O)c1cccc(Cl)c1`, the “hERG current change (%, negative = inhibition) at 10uM” value is listed as 7.02%.

On to `N#Cc1c2n(c(=O)[nH]c1=O)CCCCC2`, for which the “hERG current change (%, negative = inhibition) at 10uM” value is reported as 5.4%.

Turning to `O=C(NCCN1CCCCC1)Nc1ccc(Br)cc1`, the “hERG current change (%, negative = inhibition) at 10uM” value is -52.4%.

Turning to `CCOC(=O)C1CCCN(S(=O)(=O)CCNC(=O)c2ccccc2)C1` (stereo not drawn), the “hERG current change (%, negative = inhibition) at 10uM” value is -4.11%.

Regarding `CCCN(C(=O)/C=C/c1ccco1)c1c(N)n(Cc2ccccc2)c(=O)[nH]c1=O`, the “hERG current change (%, negative = inhibition) at 10uM” value is 38.9%.

With `O=C1C(=O)N(CCCN2CCOCC2)C(c2ccc([N+](=O)[O-])cc2)/C1=C(\O)c1ccc2c(c1)OCCO2` (stereo not drawn), the “hERG current change (%, negative = inhibition) at 10uM” value was found to be 7.47%.

As for `O=C(CCNC(=O)c1ccc(Br)cc1)NNC(=O)C1COc2ccccc2O1` (stereo not drawn), the “hERG current change (%, negative = inhibition) at 10uM” value was -7.71%.

In the case of `c1ccc(N2CCN(c3nc(-c4cccs4)nc4ccccc34)CC2)cc1`, the “hERG current change (%, negative = inhibition) at 10uM” value is on record as -8.84%.

Consider `COC(=O)c1ccc(NC(=O)CN2C(=O)c3ccccc3S2(=O)=O)cc1`, for which the “hERG current change (%, negative = inhibition) at 10uM” value worked out at 16.8%.

On to `Cc1csc(NC(=O)Cc2nn(C)c(=O)c3ccccc23)n1`, for which the “hERG current change (%, negative = inhibition) at 10uM” value was 1.84%.

In the case of `CC(C)S(=O)(=O)c1csc(C(=O)NNC(=O)Nc2ccccc2)c1Cl`, the “hERG current change (%, negative = inhibition) at 10uM” value is on record as 8.75%.

On to `CC1CC(C)CN(S(=O)(=O)c2ccc(NN)nc2)C1` (stereo not drawn), for which the “hERG current change (%, negative = inhibition) at 10uM” value was found to be 3.46%.

Regarding `NC(=O)CC(NC(=O)Cc1ccc(Br)cc1)c1ccc(NC2CCC2)c([N+](=O)[O-])c1` (stereo not drawn), the “hERG current change (%, negative = inhibition) at 10uM” value is -19.8%.

Consider `COc1ccccc1/C=C/C(=O)OCC(=O)Nc1c(F)cccc1F`, for which the “hERG current change (%, negative = inhibition) at 10uM” value is 35.9%.

`CC(=O)Nc1cccc(NC(=O)CSc2nnc3ccc(-c4ccccn4)nn23)c1`: the “hERG current change (%, negative = inhibition) at 10uM” value is reported as 20.9%.

As to `CN(CC(=O)O/N=C(\N)c1cccc([N+](=O)[O-])c1)S(=O)(=O)c1ccccc1`, the “hERG current change (%, negative = inhibition) at 10uM” value is recorded as -24.4%.

As to `CCCNc1c(NS(=O)(=O)c2c(F)c(F)c(F)c(F)c2F)c(=O)oc2ccccc12`, the “hERG current change (%, negative = inhibition) at 10uM” value is on record as -7.27%.

Regarding `Cc1cc(C)c(NC(=O)CS(=O)CC(=O)NCCCc2ccccc2)c(C)c1` (stereo not drawn), the “hERG current change (%, negative = inhibition) at 10uM” value is reported as -2.19%.

For `COc1ccc([C@@H]2[C@@H]3C(=O)N(C(C)(C)C)C(=O)[C@@H]3[C@]3(Cc4ccc(Cl)cc4)C(=O)N(c4ccc(Br)cc4)C(=O)N23)cc1`, the “hERG current change (%, negative = inhibition) at 10uM” value is recorded as 2.7%.

Turning to `Cc1cc(C)cc(OCC(=O)OCC(=O)Nc2ccc(Cl)cn2)c1`, the “hERG current change (%, negative = inhibition) at 10uM” value worked out at 3.54%.

Consider `COc1ccnc(CSC(N)=Nc2ccc(F)cc2)c1.Cl`, for which the “hERG current change (%, negative = inhibition) at 10uM” value is on record as -26.2%.

Consider `CC(C)(C)c1ccc(NC(=O)c2ccsc2)cc1`, for which the “hERG current change (%, negative = inhibition) at 10uM” value stood at 2.17%.

On to `Cc1ccccc1C(=O)Nc1ccc(Br)cn1`, for which the “hERG current change (%, negative = inhibition) at 10uM” value is reported as 12.4%.

Turning to `COc1ccc(C(=O)Nc2nnc(S(=O)(=O)N(C)Cc3ccc(F)cc3)s2)cc1OC`, the “hERG current change (%, negative = inhibition) at 10uM” value is reported as -12%.

Turning to `O=C(CCN1C(=O)C2C3C=CC(C3)C2C1=O)Nc1ccc2c(c1)OCO2` (stereo not drawn), the “hERG current change (%, negative = inhibition) at 10uM” value is -5.95%.

As to `CCOC(=O)N1CCN(CC(O)COc2cc(C)ccc2C(C)C)CC1.Cl` (stereo not drawn), the “hERG current change (%, negative = inhibition) at 10uM” value was -26.8%.

Turning to `O=C(c1cc2ccccc2cc1O)N1CCN(c2cccc(Cl)c2)CC1`, the “hERG current change (%, negative = inhibition) at 10uM” value is listed as 16.2%.

On to `COc1ccc(OCC(=O)N2CCN(C/C=C/c3ccccc3)CC2)cc1`, for which the “hERG current change (%, negative = inhibition) at 10uM” value is -58.8%.

Take `O=C1CC(c2ccc(F)cc2)Sc2nc(-c3ccccc3)c(-c3ccccc3)n21` (stereo not drawn): the “hERG current change (%, negative = inhibition) at 10uM” value is -5.09%.

As to `CC1CNCCN1S(=O)(=O)c1cccc2cnccc12` (stereo not drawn), the “hERG current change (%, negative = inhibition) at 10uM” value is -4.97%.

Turning to `CCn1ncc(NC(=S)NCCc2ccccc2)c1C(N)=O`, the “hERG current change (%, negative = inhibition) at 10uM” value is given as -14.6%.

On to `Cc1nn(C)cc1CN1CCC(n2nccc2NC(=O)CCCc2ccccc2)CC1`, for which the “hERG current change (%, negative = inhibition) at 10uM” value was -3.27%.

Regarding `COc1cccc(C(=O)N2CCN(C(=O)c3cccs3)CC2)c1OC`, the “hERG current change (%, negative = inhibition) at 10uM” value was 2.72%.

For `CCOC(=O)CN1CCC(c2ccccc2)CC1`, the “hERG current change (%, negative = inhibition) at 10uM” value was -2.19%.

As to `CC(C)NCC(O)c1ccc(NS(C)(=O)=O)cc1.Cl` (stereo not drawn), the “hERG current change (%, negative = inhibition) at 10uM” value turned out to be 24.8%.

As to `COc1ccccc1NS(=O)(=O)c1cccc(C(=O)N/N=C/c2ccc(C)o2)c1`, the “hERG current change (%, negative = inhibition) at 10uM” value turned out to be 4.6%.

For the compound `CCS(=O)(=O)N1Cc2ccccc2CC1C(=O)NCc1cccc(OC)c1` (stereo not drawn), the “hERG current change (%, negative = inhibition) at 10uM” value was -10.1%.

For the compound `Oc1ccc2ccccc2c1/C=N/Nc1ccccc1`, the “hERG current change (%, negative = inhibition) at 10uM” value came to 13.4%.

For `C(=C\c1ccccc1)/CSc1nnc(-c2ccccn2)n1Cc1ccco1`, the “hERG current change (%, negative = inhibition) at 10uM” value was -50.9%.

Regarding `Cc1ccc(N=C2NC(=O)C(CC(=O)O)S2)cc1` (stereo not drawn), the “hERG current change (%, negative = inhibition) at 10uM” value amounted to 5.7%.

Take `COc1ccc(C(=O)NNS(=O)(=O)c2ccccc2)cc1`: the “hERG current change (%, negative = inhibition) at 10uM” value is on record as 2.22%.

Regarding `O=C(NC1CCCc2ccccc21)C12CC3CC(CC(O)(C3)C1)C2` (stereo not drawn), the “hERG current change (%, negative = inhibition) at 10uM” value is recorded as 25.6%.

As to `CCOC(=O)c1cc(CC)sc1N`, the “hERG current change (%, negative = inhibition) at 10uM” value came to 15.9%.

As to `O=Cc1ccc2ccc3cccnc3c2n1`, the “hERG current change (%, negative = inhibition) at 10uM” value is -24.4%.

For the compound `Cc1ccc(S(=O)(=O)N2CCN(C(=O)COC(=O)CCOc3ccccc3)CC2)c(C)c1`, the “hERG current change (%, negative = inhibition) at 10uM” value was 1.16%.

Consider `CC(NC(=O)C(=O)NN=C1CCCCCCC1)c1ccccc1` (stereo not drawn), for which the “hERG current change (%, negative = inhibition) at 10uM” value was found to be 2.29%.

In the case of `COC(=O)C1=C(c2ccc(S(C)(=O)=O)cc2)C[C@@H]2CC[C@H]1N2C(=O)NC1CCCCC1`, the “hERG current change (%, negative = inhibition) at 10uM” value was -26.9%.

`O=C(O)c1cn(-c2ccc(N3CCCC3)c(F)c2)c2c(F)c(F)c(F)cc2c1=O`: the “hERG current change (%, negative = inhibition) at 10uM” value is recorded as -19.2%.
